From paper PMC9911399, “Two distinct binding modes provide the RNA-binding protein RbFox with extraordinary sequence specificity”
Substitutions are numbered along the chain they refer to; changes in the protein carry UniProt numbers. This is one part of the list.

T1: RBFOX1 RRM RbFoxmut (Fox-RRM*) (Homo sapiens, UniProt Q9NWB1 109-208, R118D;E147R;N151S;E152T)
T1 sequence: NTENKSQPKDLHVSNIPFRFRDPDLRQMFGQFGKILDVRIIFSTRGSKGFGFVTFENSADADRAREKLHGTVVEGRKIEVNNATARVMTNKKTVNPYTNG

B1: ACAUCUG (DNA:RNA)
RNA: GGGAGACCGGAAUUCAGAUUGUCCACAUCUGUUAAAUCCCGUCGUAGCCACCA
DNA 1: CAATCTGAATTCCGGTCTCCC
DNA 2: TGGTGGCTACGACGGGATT
B2: CGUGAAG (DNA:RNA)
RNA: B1 RNA with A25C, C26G, A27U, U28G, C29A, U30A
DNA 1: CAATCTGAATTCCGGTCTCCC
DNA 2: TGGTGGCTACGACGGGATT
B3: CCGCACG (DNA:RNA)
RNA: B1 RNA with A25C, A27G, U28C, C29A, U30C
DNA 1: CAATCTGAATTCCGGTCTCCC
DNA 2: TGGTGGCTACGACGGGATT
B4: AUCUCAU (DNA:RNA)
RNA: B1 RNA with C26U, A27C, U30A, G31U
DNA 1: CAATCTGAATTCCGGTCTCCC
DNA 2: TGGTGGCTACGACGGGATT
B5: GCAGUAU (DNA:RNA)
RNA: B1 RNA with A25G, U28G, C29U, U30A, G31U
DNA 1: CAATCTGAATTCCGGTCTCCC
DNA 2: TGGTGGCTACGACGGGATT
B6: AUUGGAU (DNA:RNA)
RNA: B1 RNA with C26U, A27U, U28G, C29G, U30A, G31U
DNA 1: CAATCTGAATTCCGGTCTCCC
DNA 2: TGGTGGCTACGACGGGATT
B7: UCUACAG (DNA:RNA)
RNA: B1 RNA with A25U, A27U, U28A, U30A
DNA 1: CAATCTGAATTCCGGTCTCCC
DNA 2: TGGTGGCTACGACGGGATT
B8: GACGGGU (DNA:RNA)
RNA: GGGAGACCGGAAUUCAGAUUGUCCGACGGGUUUAAAUCCCGUCGUAGCCACCA
DNA 1: CAATCTGAATTCCGGTCTCCC
DNA 2: TGGTGGCTACGACGGGATT
B9: GGGAUGU (DNA:RNA)
RNA: B8 RNA with A26G, C27G, G28A, G29U
DNA 1: CAATCTGAATTCCGGTCTCCC
DNA 2: TGGTGGCTACGACGGGATT
B10: CGAUCUU (DNA:RNA)
RNA: B1 RNA with A25C, C26G, G31U
DNA 1: CAATCTGAATTCCGGTCTCCC
DNA 2: TGGTGGCTACGACGGGATT
B11: UUAGGCA (DNA:RNA)
RNA: B8 RNA with G25U, A26U, C27A, G30C, U31A
DNA 1: CAATCTGAATTCCGGTCTCCC
DNA 2: TGGTGGCTACGACGGGATT
B12: CACCGUG (DNA:RNA)
RNA: B8 RNA with G25C, G28C, G30U, U31G
DNA 1: CAATCTGAATTCCGGTCTCCC
DNA 2: TGGTGGCTACGACGGGATT
B13: UUCGGAC (DNA:RNA)
RNA: B8 RNA with G25U, A26U, G30A, U31C
DNA 1: CAATCTGAATTCCGGTCTCCC
DNA 2: TGGTGGCTACGACGGGATT
B14: CCUACCU (DNA:RNA)
RNA: B1 RNA with A25C, A27U, U28A, U30C, G31U
DNA 1: CAATCTGAATTCCGGTCTCCC
DNA 2: TGGTGGCTACGACGGGATT
B15: CCCGCGG (DNA:RNA)
RNA: B1 RNA with A25C, A27C, U28G, U30G
DNA 1: CAATCTGAATTCCGGTCTCCC
DNA 2: TGGTGGCTACGACGGGATT
B16: CGGCCGC (DNA:RNA)
RNA: B1 RNA with A25C, C26G, A27G, U28C, U30G, G31C
DNA 1: CAATCTGAATTCCGGTCTCCC
DNA 2: TGGTGGCTACGACGGGATT
B17: GGGAACU (DNA:RNA)
RNA: B8 RNA with A26G, C27G, G28A, G29A, G30C
DNA 1: CAATCTGAATTCCGGTCTCCC
DNA 2: TGGTGGCTACGACGGGATT
B18: AAAUCUG (DNA:RNA)
RNA: B1 RNA with C26A
DNA 1: CAATCTGAATTCCGGTCTCCC
DNA 2: TGGTGGCTACGACGGGATT
B19: AUCCAGC (DNA:RNA)
RNA: B8 RNA with G25A, A26U, G28C, G29A, U31C
DNA 1: CAATCTGAATTCCGGTCTCCC
DNA 2: TGGTGGCTACGACGGGATT
B20: CGUAUGG (DNA:RNA)
RNA: B1 RNA with A25C, C26G, A27U, U28A, C29U, U30G
DNA 1: CAATCTGAATTCCGGTCTCCC
DNA 2: TGGTGGCTACGACGGGATT
B21: CAUGUCU (DNA:RNA)
RNA: B8 RNA with G25C, C27U, G29U, G30C
DNA 1: CAATCTGAATTCCGGTCTCCC
DNA 2: TGGTGGCTACGACGGGATT
B22: GCGUUUG (DNA:RNA)
RNA: B1 RNA with A25G, A27G, C29U
DNA 1: CAATCTGAATTCCGGTCTCCC
DNA 2: TGGTGGCTACGACGGGATT
B23: CACUUGA (DNA:RNA)
RNA: B8 RNA with G25C, G28U, G29U, U31A
DNA 1: CAATCTGAATTCCGGTCTCCC
DNA 2: TGGTGGCTACGACGGGATT
B24: UGCCUAG (DNA:RNA)
RNA: B1 RNA with A25U, C26G, A27C, U28C, C29U, U30A
DNA 1: CAATCTGAATTCCGGTCTCCC
DNA 2: TGGTGGCTACGACGGGATT
B25: CCUAAAG (DNA:RNA)
RNA: B1 RNA with A25C, A27U, U28A, C29A, U30A
DNA 1: CAATCTGAATTCCGGTCTCCC
DNA 2: TGGTGGCTACGACGGGATT
B26: CCAAAGA (DNA:RNA)
RNA: B1 RNA with A25C, U28A, C29A, U30G, G31A
DNA 1: CAATCTGAATTCCGGTCTCCC
DNA 2: TGGTGGCTACGACGGGATT
B27: GUCCAUA (DNA:RNA)
RNA: B8 RNA with A26U, G28C, G29A, G30U, U31A
DNA 1: CAATCTGAATTCCGGTCTCCC
DNA 2: TGGTGGCTACGACGGGATT
B28: CCUACGG (DNA:RNA)
RNA: B1 RNA with A25C, A27U, U28A, U30G
DNA 1: CAATCTGAATTCCGGTCTCCC
DNA 2: TGGTGGCTACGACGGGATT
B29: UGUCUUG (DNA:RNA)
RNA: B1 RNA with A25U, C26G, A27U, U28C, C29U
DNA 1: CAATCTGAATTCCGGTCTCCC
DNA 2: TGGTGGCTACGACGGGATT
B30: UGCGCUU (DNA:RNA)
RNA: B8 RNA with G25U, A26G, G29C, G30U
DNA 1: CAATCTGAATTCCGGTCTCCC
DNA 2: TGGTGGCTACGACGGGATT
B31: CGGAAGG (DNA:RNA)
RNA: B1 RNA with A25C, C26G, A27G, U28A, C29A, U30G
DNA 1: CAATCTGAATTCCGGTCTCCC
DNA 2: TGGTGGCTACGACGGGATT

biological target: T1, RBFOX1 RRM RbFoxmut (Fox-RRM*); test: EMSA; HiTS-Eq, 1 nM pool, 10 min; buffer printed only for the single-RNA assays: 10 mM Tris pH 7.5, 150 mM NaCl, 3.4 mM EDTA, 0.001% NP-40, 30 C; conditions: tags: His6 N-terminal (pET28a); label: 5' 32P
Outline: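 A pool of RNA with 7 randomized nucleotides, 5′-radiolabelled and with DNA-annealed flanks, was equilibrated at 1 nM for 10 min in 50 µL with purified RbFox RRM, wild type or mutant, across increasing protein concentrations. Free RNA was separated by 8% native PAGE, excised, reverse-transcribed, barcoded by PCR and sequenced. Relative association constants were obtained from read-count changes of each RNA species versus the control reaction and normalised to the cognate motif.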

First: B1
Second: B2
The binding signal of the first is lower: 0.0535 KA relative to UGCAUGU for the first, 0.119 KA relative to UGCAUGU for the second.

Compared with B3, B4 is lower in binding signal: 0.236 KA relative to UGCAUGU for the first, 0.0985 KA relative to UGCAUGU for the second.

First: B5
Second: B6
The binding signal of the first is lower: 0.0922 KA relative to UGCAUGU for the first, 0.0952 KA relative to UGCAUGU for the second.

First: B7
Second: B8
The binding signal of the first is higher: 0.102 KA relative to UGCAUGU for the first, 0.0571 KA relative to UGCAUGU for the second.

First: B9
Second: B10
The binding signal of the first is higher: 0.373 KA relative to UGCAUGU for the first, 0.0485 KA relative to UGCAUGU for the second.

First: B11
Second: B12
The binding signal of the first is lower: 0.106 KA relative to UGCAUGU for the first, 0.12 KA relative to UGCAUGU for the second.

Compared with B13, B14 is higher in binding signal: 0.0541 KA relative to UGCAUGU for the first, 0.0689 KA relative to UGCAUGU for the second.

First: B15
Second: B16
The binding signal of the first is higher: 0.0826 KA relative to UGCAUGU for the first, 0.0688 KA relative to UGCAUGU for the second.

First: B17
Second: B18
The binding signal of the first is higher: 0.0624 KA relative to UGCAUGU for the first, 0.0533 KA relative to UGCAUGU for the second.

First: B19
Second: B20
The binding signal of the first is lower: 0.124 KA relative to UGCAUGU for the first, 0.261 KA relative to UGCAUGU for the second.

Compared with B21, B22 is higher in binding signal: 0.103 KA relative to UGCAUGU for the first, 0.403 KA relative to UGCAUGU for the second.

Compared with B23, B24 is lower in binding signal: 0.114 KA relative to UGCAUGU for the first, 0.105 KA relative to UGCAUGU for the second.

First: B25
Second: B26
The binding signal of the first is lower: 0.0905 KA relative to UGCAUGU for the first, 0.106 KA relative to UGCAUGU for the second.

Compared with B27, B28 is lower in binding signal: 0.0959 KA relative to UGCAUGU for the first, 0.094 KA relative to UGCAUGU for the second.

First: B29
Second: B30
The binding signal of the first is higher: 0.674 KA relative to UGCAUGU for the first, 0.095 KA relative to UGCAUGU for the second.

With B31 the binding signal was 0.0742 KA relative to UGCAUGU.
